{"source": "PubChem BioAssay AID1461", "about": "(National Center for Advancing Translational Sciences (NCATS), 2008)", "note": "About 2,300 (1%) of roughly 220,000 compounds were called active. This list was built around the results that the source calls inconclusive (neither active nor inactive); the mix of calls is not that of the screen. The call rests on the fitted dose curve; in most records, active means well fitted inhibition curve with a large enough effect; inconclusive means small, poorly fitted or top-dose-only effect, or effect the other way; inactive means no such curve, though single readings can be large or run the other way. No potency is given beside an inconclusive call; the fits are too rough. Potency means the concentration at half of the fitted maximal effect; tags describe the fitted curve by direction and shape."}
{"target": "Neuropeptide S receptor (Homo sapiens) (UniProt Q6W5P4)", "sequence (Q6W5P4 whole entry, looked up)": "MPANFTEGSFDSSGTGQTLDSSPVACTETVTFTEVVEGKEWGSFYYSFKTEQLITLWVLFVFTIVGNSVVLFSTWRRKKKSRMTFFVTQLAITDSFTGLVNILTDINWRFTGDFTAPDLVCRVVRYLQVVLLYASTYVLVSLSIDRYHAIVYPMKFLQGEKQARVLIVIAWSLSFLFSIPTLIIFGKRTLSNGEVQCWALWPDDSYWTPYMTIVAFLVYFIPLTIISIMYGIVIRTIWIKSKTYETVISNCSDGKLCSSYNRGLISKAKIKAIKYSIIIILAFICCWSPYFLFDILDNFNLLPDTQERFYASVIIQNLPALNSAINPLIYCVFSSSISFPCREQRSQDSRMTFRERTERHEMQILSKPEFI", "experiment": "qHTS Assay for Antagonists of the Neuropeptide S Receptor: cAMP Signal Transduction; further: nearly all actives have a fitted effect of over 50% in size", "details": "CHO-NPSR cells, cAMP TR-FRET, antagonist mode; series mostly up to 38.3 µM"}
{"smiles": "CCCNC(=O)C1CCN(c2nc(C)cc(C)n2)CC1", "Potency": "inactive"}
{"smiles": "Fc1ccc(C(CCCn2nnc(-c3cccnc3)n2)c2ccc(F)cc2)cc1", "Potency": "inconclusive [inhibitor, single point]"}
{"smiles": "O=C1O/C(=C/c2ccccc2)c2ccccc21", "Potency": "inactive"}
{"smiles": "S=C(N/N=C/c1ccc2ncccc2c1)Nc1ccccc1", "Potency": "inconclusive [inhibitor, single point]"}
{"smiles": "COc1cccc(-c2nnc3n2N=C(C(C)(C)C)CS3)c1", "Potency": "inactive"}
{"smiles": "O=C(NNC(=S)Nc1ccc(F)cc1)C1CC1c1ccc(Cl)cc1", "note": "(stereo not drawn)", "Potency": "inactive"}
{"smiles": "COc1ccc(C2Nc3ccccc3C(=O)N2Cc2ccccc2)cc1CN1CCOCC1", "note": "(stereo not drawn)", "Potency": "inconclusive [activator, single point]"}
{"smiles": "Cc1ccc2[nH]c(=O)c(C(c3nnnn3C(C)(C)C)N(Cc3ccco3)CC3CCCO3)cc2c1", "note": "(stereo not drawn)", "Potency": "inconclusive [inhibitor, single point]"}
{"smiles": "O=c1c2cc(N3CCOCC3)ccc2[nH]c(=S)n1Cc1ccccn1", "Potency": "inactive"}
{"smiles": "Cc1cccc2cc(CN(Cc3ccc(F)cc3)Cc3nnnn3C3CCCC3)c(=O)[nH]c12", "Potency": "inconclusive [inhibitor, single point]"}
{"smiles": "O=S(=O)(c1cccs1)N1CCc2ccccc21", "Potency": "inconclusive [inhibitor, partial curve, poor fit]"}
{"smiles": "COc1ccc(N2CCN(C(=O)CNS(=O)(=O)c3ccc(C)cc3)CC2)cc1", "Potency": "inactive"}
{"smiles": "COc1cc(O)c(C(CCN2CCN(c3ccccc3)CC2)c2cc(OC)c(OC)c(OC)c2)c(OC)c1", "note": "(stereo not drawn)", "Potency": "active: 5.01 µM"}
{"smiles": "COc1ccc(N(CC(=O)N2CCc3ccccc3C2)S(=O)(=O)c2ccccc2)cc1", "Potency": "inconclusive [activator, single point]"}
{"smiles": "Cc1ccccc1/C=C1\\CCCc2ccccc2C1=O", "Potency": "inactive"}
{"smiles": "c1ccc(-n2cnc3cc(NCc4ccncc4)ccc32)cc1", "Potency": "inconclusive [inhibitor, full curve, poor fit]"}
{"smiles": "COc1ccccc1N(C(=O)CCl)c1cn(C(C)=O)c2ccccc12", "Potency": "inconclusive [inhibitor, single point]"}
{"smiles": "CCCOc1cccc(C2/C(=C(/O)c3ccc(OC)cc3)C(=O)C(=O)N2CCN(C)C)c1", "note": "(stereo not drawn)", "Potency": "inactive"}
{"smiles": "O=C(O)c1ccc2c(c1)C(=O)N(c1ccc(/C=C/C(=O)c3ccccc3)cc1)C2=O", "Potency": "inconclusive [inhibitor, single point]"}
{"smiles": "CCOC(=O)c1sc(-c2ccccn2)nc1C", "Potency": "inactive"}
{"smiles": "CN1CCN(C(=O)C2=C[C@H](c3coc4ccccc4c3=O)C[C@H](OCCCCO)O2)CC1", "Potency": "inconclusive [activator, single point]"}
{"smiles": "COc1cccc(/C=C2\\C(=O)C(=O)c3ccccc32)c1", "Potency": "inactive"}
{"smiles": "O=C1C(=C(c2ccccc2)c2ccccc2)Nc2ccccc21", "Potency": "active: 12.6 µM"}
{"smiles": "CCOc1ccc(/C=C2/SC(=S)N(n3c(C)ccc3C)C2=O)cc1", "Potency": "inconclusive [inhibitor, single point]"}
{"smiles": "COc1oc(-c2ccc(Cl)cc2)nc1C(F)(F)F", "Potency": "inconclusive [inhibitor, single point]"}
{"smiles": "CCOC(=O)c1c(-c2ccccc2)oc2ccc(O)c(CN3CCOCC3)c12", "Potency": "inconclusive [inhibitor, single point]"}
{"smiles": "CC(C)(C)c1ccc(-c2n[nH]c(=S)n2C2CCCC2)cc1", "Potency": "inconclusive [inhibitor, single point]"}
{"smiles": "COc1ccc(S(=O)(=O)CCC(=O)O)cc1", "Potency": "inconclusive [inhibitor, single point]"}
{"smiles": "CC(C)S(=O)(=O)N1CCCC(C(=O)c2cccc(Cl)c2)C1", "note": "(stereo not drawn)", "Potency": "inactive"}
{"smiles": "CCCOC(=O)c1[nH]c2c(c1C)C(=O)CC(c1cccs1)C2", "note": "(stereo not drawn)", "Potency": "inconclusive [activator, full curve, poor fit]"}
{"smiles": "OC(CNCCc1ccc(C(F)(F)F)cc1)COc1cccc2ccccc12", "note": "(stereo not drawn)", "Potency": "inconclusive [inhibitor, single point]"}
{"smiles": "O=C1CSC(c2ccc(F)cc2)N1c1nc2ccccc2s1", "note": "(stereo not drawn)", "Potency": "inactive"}
{"smiles": "Cc1ccc(S(=O)(=O)N2CCN(c3ccnc4cc(Cl)ccc34)CC2)cc1", "Potency": "inconclusive [activator, single point]"}
{"smiles": "CCOC(=O)/C(=C\\Nc1ccccc1C(F)(F)F)Sc1ncc(C(F)(F)F)cc1Cl", "Potency": "inconclusive [inhibitor, single point]"}
{"smiles": "Cc1ccc(Nc2nc(CSc3nnc(-c4ccccc4C)n3C)cs2)cc1", "Potency": "inconclusive [inhibitor, partial curve]"}
{"smiles": "O=C(c1cccs1)c1cn(CC(=O)N2CCc3ccccc3C2)c2ccccc12", "Potency": "inconclusive [inhibitor, single point]"}
{"smiles": "CCCNC(=O)N1c2ccccc2Sc2ccccc21", "Potency": "inconclusive [inhibitor, single point]"}
{"smiles": "CC(C)C(=O)Nc1cccc(C(=O)Nc2nccs2)c1", "Potency": "inconclusive [inhibitor, single point]"}
{"smiles": "O=C(Nc1ccncc1)C1CCCN(S(=O)(=O)c2cccc3cccnc23)C1", "note": "(stereo not drawn)", "Potency": "inconclusive [activator, single point]"}
{"smiles": "CC(=O)NN1C(=O)c2ccccc2NC1c1ccc([N+](=O)[O-])o1", "note": "(stereo not drawn)", "Potency": "inactive"}
{"smiles": "Cc1noc(C)c1C(=O)Nc1sc2c(c1C(N)=O)CCC2", "Potency": "inconclusive [inhibitor, single point]"}
{"smiles": "CCn1c(SCC(=O)Nc2ccc3[nH]c(=O)[nH]c3c2)nnc1-c1ccccc1", "Potency": "inactive"}
{"smiles": "CCOc1cc(C=C2C(=O)c3ccccc3C2=O)ccc1OCC(=O)Nc1ccc(C)cc1", "Potency": "inactive"}
{"smiles": "Cc1cc(C)cc(NS(=O)(=O)c2cnc(Cl)c(Cl)c2)c1", "Potency": "inconclusive [inhibitor, single point]"}
{"smiles": "CCOP1(=O)OCC2OC(n3cnc4c(N)ncnc43)C(O)C2O1", "note": "(stereo not drawn)", "Potency": "inactive"}
{"smiles": "O=C(OCCN1C(=O)c2cccc3c(N4CCOCC4)ccc(c23)C1=O)c1ccccc1Cl", "Potency": "inactive"}
{"smiles": "CCOC(=O)c1c(-c2ccc(C)o2)csc1NC(=O)CSc1nnnn1-c1ccccc1", "Potency": "inconclusive [inhibitor, partial curve, poor fit]"}
{"smiles": "Cn1c(CSc2ccccc2)c(C#N)c2ccccc21", "Potency": "inconclusive [inhibitor, partial curve, poor fit]"}
{"smiles": "CC(=O)N(c1ccc(Cl)cc1)c1c[nH]c2ccccc12", "Potency": "inconclusive [inhibitor, single point]"}
{"smiles": "COc1ccccc1C(=O)NNC(=O)c1ccc(NC(=O)C(C)C)cc1", "Potency": "inactive"}
{"smiles": "COc1ccccc1NC(=O)CCC(=O)c1ccc(-c2ccccc2)cc1", "Potency": "inactive"}
{"smiles": "COCCCNC(=O)/C(C#N)=C1\\N=C(NC(=O)c2cccs2)c2ccccc21", "Potency": "inactive"}
{"smiles": "N#Cc1ccc(-c2ccccc2)nc1SCC(=O)c1cccc(Cl)c1", "Potency": "inconclusive [inhibitor, single point]"}
{"smiles": "O=C(NCc1cccnc1)/C(=C/c1ccc(-c2ccc(Cl)cc2)o1)S(=O)(=O)c1ccccc1", "Potency": "active: 10 µM"}
{"smiles": "CCCc1nnc(NC(=O)Cn2c(=O)oc3cc(Br)ccc32)s1", "Potency": "inconclusive [inhibitor, single point]"}
{"smiles": "Cc1ccc(OC(=O)COc2ccccc2C)c(-n2nc3ccccc3n2)c1", "Potency": "inconclusive [activator, full curve, poor fit]"}
{"smiles": "FC(F)(F)c1nc2cc3nc4ccccc4[nH]c3cc2n1", "Potency": "active: 12.6 µM"}
{"smiles": "CN(C)c1nc(NCc2ccccc2)nc(N/N=C/c2cccc(Br)c2)n1", "Potency": "inconclusive [activator, single point]"}
{"smiles": "FC(F)(F)c1nc2ccccc2nc1N/N=C/c1ccc(Cl)cc1", "Potency": "inconclusive [inhibitor, single point]"}
{"smiles": "Fc1ccc(Oc2cc(N3CCOCC3)nc(-c3ccccc3)n2)c(F)c1", "Potency": "inconclusive [inhibitor, partial curve]"}
{"smiles": "Cc1c(C(Nc2ccccn2)c2ccc(Cl)cc2)c(=O)n(-c2ccccc2)n1C", "note": "(stereo not drawn)", "Potency": "inactive"}
{"smiles": "COc1ccc(F)c(C2C(C#N)=C(N)Oc3n[nH]c(C(C)(C)C)c32)c1", "note": "(stereo not drawn)", "Potency": "inconclusive [inhibitor, single point]"}
{"smiles": "CC(C)c1ccc(C2NC(=S)NC3=C2C(=O)CC(C)(C)C3)cc1", "note": "(stereo not drawn)", "Potency": "inactive"}
{"smiles": "COn1c(SCC(N)=O)nc2ccccc2c1=O", "Potency": "inconclusive [inhibitor, partial curve, poor fit]"}
{"smiles": "COc1ccc(OC)c(NC(=O)C2CCCCC2C(=O)O)c1", "note": "(stereo not drawn)", "Potency": "inconclusive [inhibitor, single point]"}
{"smiles": "O=C(Nc1ccccn1)c1sc2cccc(F)c2c1Cl", "Potency": "inconclusive [inhibitor, single point]"}
{"smiles": "Cc1cccc2cc(CN(Cc3cccnc3)C(=O)c3ccccc3F)c(Cl)nc12", "Potency": "inconclusive [inhibitor, partial curve]"}
{"smiles": "O=C(c1cc(-c2ccc3c(c2)OCO3)on1)N1CCOCC1", "Potency": "inactive"}
{"smiles": "O=C(O)CN1C(=O)/C(=C/c2ccc(SCc3ccccc3)o2)SC1=S", "Potency": "inactive"}
{"smiles": "O=c1c2c3c(sc2ncn1/N=C/c1ccc([N+](=O)[O-])o1)CCCC3", "Potency": "inconclusive [inhibitor, partial curve]"}
{"smiles": "Cc1onc(-c2ccccc2)c1C(=O)NC(=S)NNC(=O)c1cccnc1", "Potency": "inactive"}
{"smiles": "Cc1ccc(OCc2nc(-c3ccccn3)no2)c(Br)c1", "Potency": "inconclusive [inhibitor, full curve, poor fit]"}
{"smiles": "N#C/C(=C/c1cn(-c2ccccc2)nc1-c1cccc(OCc2ccccc2)c1)C(=O)NCCCn1ccnc1", "Potency": "inactive"}
